Experimental data reported in patent US11000038B2, “Pyridone compounds and agricultural and horticultural fungicides containing the same as active ingredients” (priority 2017, dated 2021).

Key:
[1] = tested on: gray mold fungi (Botrytis cinerea); assay: Test Example B: tomato gray mold, spray treatment of tomato plants; settings: tomato gray mold, spray treatment
[2] = tested on: grape downy mildew fungus (Plasmopara viticola); assay: Test Example G: grape downy mildew, spray treatment of grape plants; settings: grape downy mildew, 250 ppm spray, 7 to 10 days after inoculation
[3] = tested on: barley powdery mildew fungi (Blumeria graminis f. sp. hordei); assay: Test Example D: barley powdery mildew, spray treatment of barley plants; settings: barley powdery mildew, spray treatment
[4] = tested on: wheat brown rust fungi (Puccinia recondita); assay: Test Example E: wheat brown rust, spray treatment of wheat plants; format: in vivo; settings: wheat brown rust, spray treatment
[5] = tested on: cabbage Alternaria sooty spot fungi (Alternaia brassicicola); assay: Test Example C: cabbage Alternaria sooty spot, spray treatment of cabbage plants; format: in vivo; settings: cabbage Alternaria sooty spot, spray treatment
Excerpt: [Test Example C] Cabbage Alternaria Sooty Spot
Test plants (cabbage variety: Shikidori) were cultivated until the cotyledons extended after the sowing of seeds.
<Control Value> Control value=100{1−(n/3)}

Structure (SMILES)	Test B control value [1]	Test G control value [2]	Test D control value [3]	Test E control value [4]	Test C control value [5]
CCc1c(-c2c(F)cccc2F)n(-c2cccc(F)c2C)cc(C)c1=O [Compound 552]	H (H shows the control value of more than 50%)	H (H shows the control value of more than 50%)	H (H shows the control value of more than 50%)	H (H shows the control value of more than 50%)	H (H shows the control value of more than 50%)
CCc1c(-c2ccccc2)n(-c2cc(Cl)ccc2C)cc(Br)c1=O [Compound 553]	H (H shows the control value of more than 50%)	L (L shows the control value of 50% or less)	L (L shows the control value of 50% or less)	L (L shows the control value of 50% or less)	L (L shows the control value of 50% or less)
CCc1c(-c2c(F)cccc2F)n(-c2ccccc2)cc(C)c1=O [Compound 555]	H (H shows the control value of more than 50%)	L (L shows the control value of 50% or less)	H (H shows the control value of more than 50%)	H (H shows the control value of more than 50%)	H (H shows the control value of more than 50%)
CCc1c(-c2c(F)cc(F)cc2F)n(-c2cc(Cl)ccc2C)cc(Br)c1=O [Compound 556]	H (H shows the control value of more than 50%)	L (L shows the control value of 50% or less)	H (H shows the control value of more than 50%)	H (H shows the control value of more than 50%)	H (H shows the control value of more than 50%)
CCc1c(-c2ccccc2)n(-c2ccccc2)cc(Br)c1=O [Compound 557]	H (H shows the control value of more than 50%)	L (L shows the control value of 50% or less)	L (L shows the control value of 50% or less)	H (H shows the control value of more than 50%)	H (H shows the control value of more than 50%)
CCc1c(-c2ccccc2)n(-c2ccccc2)cc(C)c1=O [Compound 559]	L (L shows the control value of 50% or less)	H (H shows the control value of more than 50%)	H (H shows the control value of more than 50%)	L (L shows the control value of 50% or less)	H (H shows the control value of more than 50%)
CCc1c(-c2c(F)cccc2F)n(-c2cc(OC)ccc2C)cc(C)c1=O [Compound 560]	H (H shows the control value of more than 50%)	L (L shows the control value of 50% or less)	H (H shows the control value of more than 50%)	H (H shows the control value of more than 50%)	H (H shows the control value of more than 50%)
CCc1c(-c2c(F)cccc2F)n(-c2cc(Br)ccc2C)cc(Br)c1=O [Compound 561]	H (H shows the control value of more than 50%)	H (H shows the control value of more than 50%)	L (L shows the control value of 50% or less)	H (H shows the control value of more than 50%)	H (H shows the control value of more than 50%)
CCc1c(-c2ccccc2)n(-c2cccc(OC)c2C)cc(Br)c1=O [Compound 562]	H (H shows the control value of more than 50%)	L (L shows the control value of 50% or less)	L (L shows the control value of 50% or less)	H (H shows the control value of more than 50%)	H (H shows the control value of more than 50%)
CCc1c(-c2ccccc2)n(-c2cccc(OC)c2C)cc(C)c1=O [Compound 563]	H (H shows the control value of more than 50%)	L (L shows the control value of 50% or less)	H (H shows the control value of more than 50%)	H (H shows the control value of more than 50%)	H (H shows the control value of more than 50%)
CCc1c(-c2ccccc2)n(-c2cc(F)ccc2C)cc(Br)c1=O [Compound 564]	H (H shows the control value of more than 50%)	L (L shows the control value of 50% or less)	L (L shows the control value of 50% or less)	H (H shows the control value of more than 50%)	H (H shows the control value of more than 50%)
CCc1c(-c2ccccc2)n(-c2ccccc2C)cc(C)c1=O [Compound 566]	H (H shows the control value of more than 50%)	L (L shows the control value of 50% or less)	H (H shows the control value of more than 50%)	H (H shows the control value of more than 50%)	H (H shows the control value of more than 50%)
O=c1c(Br)cn(-c2ccccc2)c(-c2ccc(F)cc2Cl)c1Cl [Compound 567]	H (H shows the control value of more than 50%)	L (L shows the control value of 50% or less)	L (L shows the control value of 50% or less)	H (H shows the control value of more than 50%)	H (H shows the control value of more than 50%)
CCc1c(-c2ccccc2)n(-c2cc(Cl)ccc2C)cc(C)c1=O [Compound 568]	H (H shows the control value of more than 50%)	L (L shows the control value of 50% or less)	H (H shows the control value of more than 50%)	H (H shows the control value of more than 50%)	H (H shows the control value of more than 50%)
O=c1c(Br)cn(-c2ccccc2)c(-c2ccc(F)cc2Br)c1Cl [Compound 569]	H (H shows the control value of more than 50%)	L (L shows the control value of 50% or less)	L (L shows the control value of 50% or less)	H (H shows the control value of more than 50%)	H (H shows the control value of more than 50%)
CCc1c(-c2c(F)cc(F)cc2F)n(-c2cc(Cl)ccc2C)cc(C)c1=O [Compound 570]	H (H shows the control value of more than 50%)	L (L shows the control value of 50% or less)	H (H shows the control value of more than 50%)	H (H shows the control value of more than 50%)	H (H shows the control value of more than 50%)
Cc1cc(F)ccc1-c1c(C)c(=O)c(C)cn1-c1ccccc1 [Compound 571]	H (H shows the control value of more than 50%)	L (L shows the control value of 50% or less)	H (H shows the control value of more than 50%)	H (H shows the control value of more than 50%)	H (H shows the control value of more than 50%)
CCc1c(-c2ccccc2)n(-c2cc(F)ccc2C)cc(C)c1=O [Compound 573]	H (H shows the control value of more than 50%)	L (L shows the control value of 50% or less)	H (H shows the control value of more than 50%)	H (H shows the control value of more than 50%)	H (H shows the control value of more than 50%)
O=c1c(Br)cn(-c2ccccc2)c(-c2ccccc2Cl)c1Cl [Compound 574]	H (H shows the control value of more than 50%)	L (L shows the control value of 50% or less)	L (L shows the control value of 50% or less)	H (H shows the control value of more than 50%)	H (H shows the control value of more than 50%)
